Results published in patent US11000038B2, “Pyridone compounds and agricultural and horticultural fungicides containing the same as active ingredients” (priority 2017, dated 2021).

Experiments:
[1] = tested on: cabbage Alternaria sooty spot fungi (Alternaia brassicicola); assay: Test Example C: cabbage Alternaria sooty spot, spray treatment of cabbage plants; format: in vivo; conditions: spray treatment of cabbage plants; control value=100{1-(n/3)}
Source text: [Test Example C] Cabbage Alternaria Sooty Spot
Test plants (cabbage variety: Shikidori) were cultivated until the cotyledons extended after the sowing of seeds.
<Control Value> Control value=100{1−(n/3)}

[2] = tested on: wheat brown rust fungi (Puccinia recondita); assay: Test Example E: wheat brown rust, spray treatment of wheat plants; format: in vivo; conditions: spray treatment of wheat plants; control value=100{1-(n/3)}
[3] = tested on: gray mold fungi (Botrytis cinerea); assay: Test Example B: tomato gray mold, spray treatment of tomato plants; conditions: spray treatment of tomato plants; control value=100{1-(n/3)}
[4] = tested on: grape downy mildew fungus (Plasmopara viticola); assay: Test Example G: grape downy mildew, spray treatment of grape plants; conditions: 250 ppm spray, 2.5 ml/pot, grape Neomuscat; 7 to 10 days from inoculation
[5] = tested on: barley powdery mildew fungi (Blumeria graminis f. sp. hordei); assay: Test Example D: barley powdery mildew, spray treatment of barley plants; conditions: spray treatment of barley plants; control value=100{1-(n/3)}

Structure (SMILES): O=c1c(Br)cn(-c2ccccc2Br)c(-c2c(F)cccc2F)c1Cl [Compound 90]
- Test C control value class (cabbage Alternaria sooty spot) [1]: H (H shows the control value of more than 50%)
- Test E control value class (wheat brown rust) [2]: H (H shows the control value of more than 50%)
- Test B control value class (tomato gray mold) [3]: H (H shows the control value of more than 50%)
- Test G control value class (grape downy mildew) [4]: H (H shows the control value of more than 50%)
- Test D control value class (barley powdery mildew) [5]: H (H shows the control value of more than 50%)

Structure (SMILES): O=c1c(Br)cn(-c2ccccc2Br)c(-c2c(F)cccc2F)c1Br [Compound 91]
- Test C control value class (cabbage Alternaria sooty spot) [1]: H (H shows the control value of more than 50%)
- Test E control value class (wheat brown rust) [2]: H (H shows the control value of more than 50%)
- Test B control value class (tomato gray mold) [3]: H (H shows the control value of more than 50%)
- Test G control value class (grape downy mildew) [4]: L (L shows the control value of 50% or less)
- Test D control value class (barley powdery mildew) [5]: L (L shows the control value of 50% or less)

Structure (SMILES): O=c1c(Cl)cn(-c2ccccc2Br)c(-c2c(F)cccc2F)c1Cl [Compound 92]
- Test C control value class (cabbage Alternaria sooty spot) [1]: H (H shows the control value of more than 50%)
- Test E control value class (wheat brown rust) [2]: H (H shows the control value of more than 50%)
- Test B control value class (tomato gray mold) [3]: H (H shows the control value of more than 50%)
- Test G control value class (grape downy mildew) [4]: L (L shows the control value of 50% or less)
- Test D control value class (barley powdery mildew) [5]: H (H shows the control value of more than 50%)

Structure (SMILES): O=c1c(Cl)cn(-c2ccccc2Br)c(-c2c(F)cccc2F)c1Br [Compound 93]
- Test C control value class (cabbage Alternaria sooty spot) [1]: H (H shows the control value of more than 50%)
- Test E control value class (wheat brown rust) [2]: H (H shows the control value of more than 50%)
- Test B control value class (tomato gray mold) [3]: H (H shows the control value of more than 50%)
- Test G control value class (grape downy mildew) [4]: L (L shows the control value of 50% or less)
- Test D control value class (barley powdery mildew) [5]: L (L shows the control value of 50% or less)

Structure (SMILES): O=c1c(Cl)cn(CCc2ccccc2)c(-c2c(F)cc(F)cc2F)c1Cl [Compound 94]
- Test C control value class (cabbage Alternaria sooty spot) [1]: L (L shows the control value of 50% or less)
- Test E control value class (wheat brown rust) [2]: H (H shows the control value of more than 50%)
- Test B control value class (tomato gray mold) [3]: L (L shows the control value of 50% or less)
- Test G control value class (grape downy mildew) [4]: L (L shows the control value of 50% or less)
- Test D control value class (barley powdery mildew) [5]: L (L shows the control value of 50% or less)

Structure (SMILES): O=c1c(Cl)cn(CCc2ccccc2)c(-c2c(F)cc(F)cc2F)c1Br [Compound 95]
- Test C control value class (cabbage Alternaria sooty spot) [1]: L (L shows the control value of 50% or less)
- Test E control value class (wheat brown rust) [2]: H (H shows the control value of more than 50%)
- Test B control value class (tomato gray mold) [3]: L (L shows the control value of 50% or less)
- Test G control value class (grape downy mildew) [4]: L (L shows the control value of 50% or less)
- Test D control value class (barley powdery mildew) [5]: L (L shows the control value of 50% or less)

Structure (SMILES): O=c1c(Br)cn(-c2ccc(F)cc2Cl)c(-c2c(F)cccc2F)c1Cl [Compound 96]
- Test C control value class (cabbage Alternaria sooty spot) [1]: H (H shows the control value of more than 50%)
- Test E control value class (wheat brown rust) [2]: H (H shows the control value of more than 50%)
- Test B control value class (tomato gray mold) [3]: H (H shows the control value of more than 50%)
- Test G control value class (grape downy mildew) [4]: H (H shows the control value of more than 50%)
- Test D control value class (barley powdery mildew) [5]: L (L shows the control value of 50% or less)

Structure (SMILES): O=c1c(Br)cn(-c2ccc(F)cc2Cl)c(-c2c(F)cccc2F)c1Br [Compound 97]
- Test C control value class (cabbage Alternaria sooty spot) [1]: H (H shows the control value of more than 50%)
- Test E control value class (wheat brown rust) [2]: H (H shows the control value of more than 50%)
- Test B control value class (tomato gray mold) [3]: H (H shows the control value of more than 50%)
- Test G control value class (grape downy mildew) [4]: L (L shows the control value of 50% or less)
- Test D control value class (barley powdery mildew) [5]: L (L shows the control value of 50% or less)

Structure (SMILES): O=c1c(Cl)cn(-c2ccc(F)cc2Cl)c(-c2c(F)cccc2F)c1Cl [Compound 99]
- Test C control value class (cabbage Alternaria sooty spot) [1]: H (H shows the control value of more than 50%)
- Test E control value class (wheat brown rust) [2]: H (H shows the control value of more than 50%)
- Test B control value class (tomato gray mold) [3]: H (H shows the control value of more than 50%)
- Test G control value class (grape downy mildew) [4]: L (L shows the control value of 50% or less)
- Test D control value class (barley powdery mildew) [5]: L (L shows the control value of 50% or less)

Structure (SMILES): O=c1c(Br)cn(CCc2ccccc2)c(-c2c(F)cc(F)cc2F)c1Cl [Compound 100]
- Test C control value class (cabbage Alternaria sooty spot) [1]: L (L shows the control value of 50% or less)
- Test E control value class (wheat brown rust) [2]: H (H shows the control value of more than 50%)
- Test B control value class (tomato gray mold) [3]: L (L shows the control value of 50% or less)
- Test G control value class (grape downy mildew) [4]: L (L shows the control value of 50% or less)
- Test D control value class (barley powdery mildew) [5]: L (L shows the control value of 50% or less)

Structure (SMILES): COc1cc(F)c(-c2c(Cl)c(=O)c(Cl)cn2CCc2ccccc2)c(F)c1 [Compound 102]
- Test C control value class (cabbage Alternaria sooty spot) [1]: H (H shows the control value of more than 50%)
- Test E control value class (wheat brown rust) [2]: H (H shows the control value of more than 50%)
- Test B control value class (tomato gray mold) [3]: H (H shows the control value of more than 50%)
- Test G control value class (grape downy mildew) [4]: L (L shows the control value of 50% or less)
- Test D control value class (barley powdery mildew) [5]: L (L shows the control value of 50% or less)

Structure (SMILES): COc1cc(F)c(-c2c(Br)c(=O)c(Cl)cn2CCc2ccccc2)c(F)c1 [Compound 103]
- Test C control value class (cabbage Alternaria sooty spot) [1]: H (H shows the control value of more than 50%)
- Test E control value class (wheat brown rust) [2]: H (H shows the control value of more than 50%)
- Test B control value class (tomato gray mold) [3]: H (H shows the control value of more than 50%)
- Test G control value class (grape downy mildew) [4]: L (L shows the control value of 50% or less)
- Test D control value class (barley powdery mildew) [5]: L (L shows the control value of 50% or less)

Structure (SMILES): O=c1c(Br)cn(-c2cc(F)ccc2Cl)c(-c2c(F)cccc2F)c1Cl [Compound 105]
- Test C control value class (cabbage Alternaria sooty spot) [1]: H (H shows the control value of more than 50%)
- Test E control value class (wheat brown rust) [2]: H (H shows the control value of more than 50%)
- Test B control value class (tomato gray mold) [3]: H (H shows the control value of more than 50%)
- Test G control value class (grape downy mildew) [4]: L (L shows the control value of 50% or less)
- Test D control value class (barley powdery mildew) [5]: H (H shows the control value of more than 50%)

Structure (SMILES): CC(C)Cn1cc(Cl)c(=O)c(Cl)c1-c1c(F)cc(F)cc1F [Compound 107]
- Test C control value class (cabbage Alternaria sooty spot) [1]: H (H shows the control value of more than 50%)
- Test E control value class (wheat brown rust) [2]: H (H shows the control value of more than 50%)
- Test B control value class (tomato gray mold) [3]: H (H shows the control value of more than 50%)
- Test G control value class (grape downy mildew) [4]: H (H shows the control value of more than 50%)
- Test D control value class (barley powdery mildew) [5]: H (H shows the control value of more than 50%)

Structure (SMILES): CC(C)Cn1cc(Cl)c(=O)c(Br)c1-c1c(F)cc(F)cc1F [Compound 108]
- Test C control value class (cabbage Alternaria sooty spot) [1]: H (H shows the control value of more than 50%)
- Test E control value class (wheat brown rust) [2]: H (H shows the control value of more than 50%)
- Test B control value class (tomato gray mold) [3]: H (H shows the control value of more than 50%)
- Test G control value class (grape downy mildew) [4]: H (H shows the control value of more than 50%)
- Test D control value class (barley powdery mildew) [5]: H (H shows the control value of more than 50%)

Structure (SMILES): O=c1c(Cl)cn(-c2cc(F)ccc2Cl)c(-c2c(F)cccc2F)c1Br [Compound 109]
- Test C control value class (cabbage Alternaria sooty spot) [1]: H (H shows the control value of more than 50%)
- Test E control value class (wheat brown rust) [2]: H (H shows the control value of more than 50%)
- Test B control value class (tomato gray mold) [3]: H (H shows the control value of more than 50%)
- Test G control value class (grape downy mildew) [4]: L (L shows the control value of 50% or less)
- Test D control value class (barley powdery mildew) [5]: L (L shows the control value of 50% or less)

Structure (SMILES): O=c1c(Cl)cn(-c2cc(F)ccc2Cl)c(-c2c(F)cccc2F)c1Cl [Compound 110]
- Test C control value class (cabbage Alternaria sooty spot) [1]: H (H shows the control value of more than 50%)
- Test E control value class (wheat brown rust) [2]: H (H shows the control value of more than 50%)
- Test B control value class (tomato gray mold) [3]: H (H shows the control value of more than 50%)
- Test G control value class (grape downy mildew) [4]: L (L shows the control value of 50% or less)
- Test D control value class (barley powdery mildew) [5]: H (H shows the control value of more than 50%)
